These results are taken from the RNAGym collection of RNA variant scans (doi:10.7554/elife.90254).

The source gives no read counts; variants with many changes may rest on few reads.

The chains are these.
B1: LINE1-mini (parent)
chain: GGCAGAGCUCAACACAGCGUGGCAAAGUGGCUGUGGCUAGACUGCC

The variants in the series derive from B1. The series can be described thus: self-cleavage, relative activity (ratio to wild type); higher = more cleavage; in vitro, sequencing; the parent is a self-cleaving ribozyme.
Consider GUCAGAGCUCAACCCAGAGUAGCAAAGUGGCAGUGGCUAGACUGCC [G2U A14C C18A G21A U32A], for which the self-cleavage was found to be 0.01.
GUCAGAGCUCAACUCAGCGUUGCAAAGUGGCUGGGGCUAGACUGCC [G2U A14U G21U U34G]: the self-cleavage is 0.06.
As to GUCAGAGCUCCACACAGCGUGGCAAAGUGGCUGUGGCCAGAGUGCC [G2U A11C U38C C42G], the self-cleavage is 0.01.
As for GUCAGAGCUCCACACAGCGUGGCAAAGUGGCUGUGGCUAGAAUGCC [G2U A11C C42A], the self-cleavage worked out at 0.
As to GUCAGAGCUCAACACAGCGUGGCGAAGUGGCUGUGGCUAGACAGCC [G2U A24G U43A], the self-cleavage came out at 0.
As to GUCAGAGCUCAACGCAGCGUGGCAAAGUGGCUGUGGCUAGACGGCC [G2U A14G U43G], the self-cleavage turned out to be 0.
Under GUCAGAGCUCACCACAGCCUGGCAAAGUGGCUGUGGCUAGCCUACC [G2U A12C G19C A41C G44A] stands 0.01; under GUCAGAGCUCAACCCAGCGUCUCAAAGCGGCUGUGGCUAGACUGCC [G2U A14C G21C G22U U28C], 0.03.
Take GUCAGAGCUCAACACAGCGUGGCACAGUGGCUGUGGCUCGACUCCG [G2U A25C A39C G44C C46G]: the self-cleavage was 0.01.
With GUCAGAGCUCAACUCAGCGUGACAAAGUGGCUGUUGCUUUAAUGCC [G2U A14U G22A G35U A39U G40U C42A], the self-cleavage was found to be 0.02.
With GUCAGAGCUCAACGCAGCGUUCCAAAGUGGCUGUAGCUAGACUGCC [G2U A14G G21U G22C G35A], the self-cleavage stood at 0.01.
With GUCAGAGCUCAACACCGCGUGGCAAAGUGGCUGUGGGUACACAGCC [G2U A16C C37G G40C U43A], the self-cleavage was 0.02.
On to GUCAGAGCUCAACACAGCGUGGCGAAGUGGCUGUGGCGAGACUGCC [G2U A24G U38G], for which the self-cleavage turned out to be 0.03.
Consider GUCAGAGCUCAACACAGCGUGGCACAGUGGCUGUGGGUAGACUGCC [G2U A25C C37G], for which the self-cleavage amounted to 0.03.
As for GUCAGAGCUCAACACAGCGUGGCGAAGUGGCUGUGGCUAGCCUGCC [G2U A24G A41C], the self-cleavage was 0.04.
For the variant GUCAGAGCUCAACACGGCGUGGCAAAGUGGCUGGCGCUAGACUGCC [G2U A16G U34G G35C], the self-cleavage came out at 0.05.
Consider GUCAGAGCUCUACACAGGGUUGCAAAGUGGCUGUGGCUAGACUGCC [G2U A11U C18G G21U], for which the self-cleavage amounted to 0.03.
Consider GUCAGAGCUCAUCACAGCGUUGCAAAUUGGAUGUGGCUAGACUGCC [G2U A12U G21U G27U C31A], for which the self-cleavage is 0.01.
For GUCAGAGCUCAACUCAGCGUGGCAAAGUGUCUGUGGCUAGACUGCC [G2U A14U G30U], the self-cleavage was 0.07.
For the variant GUCAGAGCUCAACACCGCGUGGAAAAGAGGCUGUGGCUAUACUGCC [G2U A16C C23A U28A G40U], the self-cleavage came out at 0.02.
As to GUCAGAGCUCAACACAGCGUGGCAACGUCGCUGUGGCUAGACUGCC [G2U A26C G29C], the self-cleavage came to 0.
Consider GUCAGAGCUCAACACAGCGUGGCAGAGUAGCUGUGGUUAAACUGUC [G2U A25G G29A C37U G40A C45U], for which the self-cleavage is 0.1.
On to GUCAGAGCUCUACAUUGCGUGUGAAAGUGGCUGUGGCUAGACUGCC [G2U A11U C15U A16U G22U C23G], for which the self-cleavage amounted to 0.01.
Regarding GUCAGAGCUCAACACAGCGUGGCCAAGUGGCUGUGACUAGCCUGCC [G2U A24C G36A A41C], the self-cleavage was 0.09.
For the variant GUCAGAGCUCAACUCAGCGUGGCAAAGUGGCUGUGGUUAGAUUGCC [G2U A14U C37U C42U], the self-cleavage was determined as 0.16.
As to GUCAGAGCUCAACUCAGGGUGGCAAAGUGGCUGUGACUAGACUGCC [G2U A14U C18G G36A], the self-cleavage turned out to be 0.03.
In the case of GUCAGAGCUCAACCCAGUGUGGCAAAGUGGCUGUGGCUAGACUGCC [G2U A14C C18U], the self-cleavage came out at 0.03.
Consider GUCAGAGCUCCACACAGCGUGUCAAAGUGGCUGUGGCUAGACUGCC [G2U A11C G22U], for which the self-cleavage is 0.02.
Under GUCAGAGCUCUACACAGCGUGGCAAAGUUGCUGUGGCUCGACUGCC [G2U A11U G29U A39C] stands 0.
On to GUCAGAGCUCAACCCACCGUGGCAAAGUCGCUGUGGCGAGACUGCC [G2U A14C G17C G29C U38G], for which the self-cleavage was found to be 0.
Consider GUCAGAGCUCAACACAGCGUGGCAAUUUGGCUGUGGCUAGACGGCC [G2U A26U G27U U43G], for which the self-cleavage was 0.01.
As to GUCAGAGCUCAACACUGCGUGGCAGAGUGGAUGUGGCUAGACUGCC [G2U A16U A25G C31A], the self-cleavage turned out to be 0.03.
As to GUCAGAGCUCACCACAGCGUGGCAAAGUGGCUGUGUGUAGACUGCC [G2U A12C G36U C37G], the self-cleavage stood at 0.
With GUCAGAGCUCAACACGGCGUGGCAAAGUGGCUGUGGCUAGAAUGCC [G2U A16G C42A], the self-cleavage was 0.16.
In the case of GUCAGAGCUCAGCACAGCGUCGCAAAAUGGCUGUGGCUAGACUGCC [G2U A12G G21C G27A] it was 0.02.
As to GUCAGAGCUCCACACAGCGUGGCAAAGUGGCUGUAGCUAGACUGCC [G2U A11C G35A], the self-cleavage was determined as 0.01.
Regarding GUCAGAGCUCUACACAGCGUGGCAAAGUGGGCGUGGCUUGACUGCC [G2U A11U C31G U32C A39U], the self-cleavage amounted to 0.01.
Consider GUCAGAGCUCCACACAUCAUGGCAAAGUGGCUGUGUCUAGACUGCC [G2U A11C G17U G19A G36U], for which the self-cleavage turned out to be 0.05.
For GUCAGUGCUCAACACAGCGUGGCAAAGUGGCUGUGGCUCGACUGAC [G2U A6U A39C C45A], the self-cleavage is 0.08.
With GUCAGAGCUCAACACCGCGUGGCGAAGUGGCUGUGGCUAGACUGCC [G2U A16C A24G], the self-cleavage was 0.01.
Turning to GUCAGAGCUCCACACCGCGUGGCAAAGUGGCUGUGGCUAGACUGCC [G2U A11C A16C], the self-cleavage amounted to 0.03.
Turning to GUCAGAGCUCAACACAGCGUGGCAUAGUGGAUGUGGCUAGACUGCC [G2U A25U C31A], the self-cleavage came out at 0.08.
As to GUCAGAGCUCAACCAAGCGUGGCAAAGUCGCUGUGGAUAGAAUGCC [G2U A14C C15A G29C C37A C42A], the self-cleavage was 0.05.
Under GUCAGUGCUCAACACAGCAUGGAAAAGUGGCUGUGGCUAGACUGCC [G2U A6U G19A C23A] stands 0.27; under GUCAGAGCUCCACAGAGCGUGGCAAAGUGGCUGUGGCUAGACUGCA [G2U A11C C15G C46A], 0.03; under GUCAGAGCUCCCCACAGCGUGGCAAAGUGGCUGUGGCUAGACUGCA [G2U A11C A12C C46A], 0.01.
GUCAGAGCUCAACCCGGCGUGGCAAAGUGGCUGUGGCUAGACUACC [G2U A14C A16G G44A]: the self-cleavage is 0.
For GUCAGAGCUCAACUGAGCGUGGCAAAGUGGCUGUGGCUAGACUGCC [G2U A14U C15G], the self-cleavage was 0.05.
GUCAGAGCUCAACACGGCGUGGCAAAGUGGCUGUGGCUAGACCGCC [G2U A16G U43C]: the self-cleavage stood at 0.01.
Take GUCAGAGCUCAACACAGCGUGGCUAAGUGCCUGUGGUUAGACUGCC [G2U A24U G30C C37U]: the self-cleavage amounted to 0.04.
Turning to GUCAGAGCUCAACUCAGCGUGGCAAAGUGGCUGGGGCUAGACUGCC [G2U A14U U34G], the self-cleavage amounted to 0.03.
As to GUCAGAGCUCAGCACAGCGUGGCAAAGUGGCUGUUGCUAGACAGCC [G2U A12G G35U U43A], the self-cleavage was 0.04.
Regarding GUCAGAGCUCAACACAGCGUGGCAAGGUGGCGAUGGCUAGACUGCC [G2U A26G U32G G33A], the self-cleavage was 0.01.
Regarding GUCAGAGCUCUACACAGCGCGGCAGAGUGGCUGUGAAUAGUUUGCC [G2U A11U U20C A25G G36A C37A A41U C42U], the self-cleavage was determined as 0.
GUCAGAGCUCCACACAGCGUGGCUAAGUGGUUGUGGCUAGACUGCC [G2U A11C A24U C31U]: the self-cleavage was 0.03.
With GUCAGAGCUCUACACAGCUUAGGAAAGUGGCUGUGGCUAUACUGCC [G2U A11U G19U G21A C23G G40U], the self-cleavage worked out at 0.
